# From PubChem BioAssay AID1347120 (National Center for Advancing Translational Sciences (NCATS), 2019)
# Values joined by “and” are separate entries in the source; they are usually repeats but may differ in a detail not shown here. Identical values can stand only once. Out of some 390,000 compounds screened, about 930 (0.24%) were called active. Inconclusive results, whose numbers are uncertain, are shown with a selection of clear calls. The call rests on the fitted dose curve; in most records, active means well fitted activation curve with a large enough effect; inconclusive means small, poorly fitted or top-dose-only effect; inactive means no such curve, though single readings can be large or run the other way. Potencies beside an inconclusive call are fits to weak or partial responses and may not hold up.
# Assay: qHTS for Suppressors of FUS Proteinopathy: Primary screen using FUS-linked yeast assay; further: nearly all actives have a fitted effect of over 55% in size;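 on growth rescue (activation): plate controls were DMSO vehicle for no effect and reference control for full effect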
# Details: S. cerevisiae FUS-expressing, OD600, 24 h; Potency: growth rescue; growth rescue (activation): at 76.6 µM (top of the series)
# Method in brief: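 S. cerevisiae expressing FUS from galactose induction served as the toxicity model. Growth after 24hr at 30C, read as absorbance at 600 nm, indicates suppression of toxicity; compounds dosed at several concentrations.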
# Potency means the concentration at half of the fitted maximal effect; tags describe the fitted curve by direction and shape.
SMILES,Potency,growth rescue (activation)
COC(=O)c1ccc(OCC2c3cc(OC)c(OC)cc3CCN2C(=O)c2cccc(C)c2)cc1 (centres undefined),"inconclusive: 28.2 µM [activator, partial curve, poor fit]",
COc1cc(NC(=S)N2CCN(C/C=C/c3ccccc3)CC2)cc(OC)c1,"inconclusive: 39.8 µM [activator, partial curve, poor fit]",
CC(C)CCNC(=O)NC(=O)CSc1nnc(COc2ccccc2Cl)o1,"inconclusive: 56.2 µM [activator, partial curve, poor fit]",
NC(=O)c1ccc(-n2nnnc2Oc2ccccc2)cc1,,inactive: 0.791%
O=C(CCCN1C(=O)/C(=C/c2ccccc2Cl)SC1=S)Nc1cccnc1,"inconclusive: 14.1 µM [activator, partial curve]",
NC(=O)CSc1nc2scc(-c3ccco3)c2c(=O)n1-c1ccccc1,active: 22.4 µM,
Cc1cc(OCC(=O)N[C@@H](CSCc2ccccc2)C(=O)O)c2c(C)c(C)c(=O)oc2c1,"inconclusive: 35.5 µM [activator, partial curve, poor fit]",
COCCCNC(=O)C[C@H]1C[C@H](C(=O)N2CCCCC2)[C@@]2(CCc3ccccc3)c3[nH]c4cc(-c5ccco5)ccc4c3CCN2C1=O,"inconclusive: 28.2 µM [activator, single point]",
CCN1CCN(Cc2ccc(NC(=O)c3cc(NC(=O)c4cncc(-c5cccs5)c4)cc(OC)c3)cc2C(F)(F)F)CC1,"inconclusive: 50.1 µM [activator, single point] and inconclusive: 31.6 µM [activator, single point]",
c1ccc(-c2nnc3sc(-c4ccncc4)nn23)cc1,,inactive: 11.3%
CCN(CC)C(=O)CC(c1cc(OC)c(OC)c(OC)c1)c1c(OC)cc(OC)c2c(-c3ccccc3)cc(=O)oc12 (centres undefined),"inconclusive: 28.2 µM [activator, single point]",
Cn1nc(C(C)(C)C)cc1NC(=O)C1(C)CCN1C(=O)c1ccccc1CCc1ccccc1 (centres undefined),"inconclusive: 25.1 µM [activator, single point]",
C[C@H]1O[C@@H](O[C@H]2[C@@H](O)C[C@H](O[C@H]3[C@@H](O)C[C@H](O[C@H]4CC[C@@]5(C)[C@H](CC[C@@H]6[C@@H]5C[C@@H](O)[C@]5(C)[C@@H](C7=CC(=O)OC7)CC[C@]65O)C4)O[C@@H]3C)O[C@@H]2C)C[C@H](O)[C@@H]1O,,inactive: 9.98%
CCn1c(C(=O)N2CCC(Cc3ccccc3)CC2)cc2sccc21,"inconclusive: 11.2 µM [activator, partial curve, poor fit]",
Cc1ccc(C)c(Cn2c(=O)n(Cc3ccccc3)c(=O)c3sc4ccccc4c32)c1,,inactive: -26.5%
CCOC(=O)c1oc2ccccc2c1CN1CCN(c2ccccc2)CC1,"inconclusive: 22.4 µM [activator, partial curve, poor fit]",
CCc1ccc(-c2nc(CS(=O)CC(=O)NC3CCCCCC3)c(C)o2)cc1 (centres undefined),"inconclusive: 17.8 µM [activator, partial curve, poor fit]",
C=CCn1c(SCc2nc3ccccc3nc2C)nnc1-c1ccoc1C,"inconclusive: 0.794 µM [activator, full curve, poor fit]",
COc1ccc(N2CCN(C(=O)C3CCN(S(=O)(=O)c4c(C)noc4/C=C/N(C)C)CC3)CC2)cc1,"inconclusive: 8.91 µM [activator, partial curve]",
O=C(CCC1N=C2c3ccccc3N=C(SCc3cccc(Cl)c3)N2C1=O)NCCc1ccccc1 (centres undefined),"inconclusive: 28.2 µM [activator, partial curve, poor fit]",

SMILES,Potency,growth rescue (activation)
CC1=C(C(=O)Nc2ccccc2)C(c2ccc(Cl)cc2)n2c(s/c(=C/c3cccc(OCC(=O)O)c3)c2=O)=N1 (centres undefined),"inconclusive: 17.8 µM [activator, partial curve, poor fit]",
Cc1oc(-c2cccc(Br)c2)nc1Cn1c(SCc2cccc(F)c2)nc2cccnc21,,inactive: 7.4%
Cc1cccc(NC(=O)Cn2cnc3ccc(S(=O)(=O)N4CCC(C)CC4)cc3c2=O)n1,active: 35.5 µM,
COc1ccc(NC(=O)CSc2cn(CCNC(=O)c3ccc(OC)cc3)c3ccccc23)cc1,"inconclusive: 50.1 µM [activator, single point]",
CCOC(=O)c1c(NC(=O)CSc2nnc(-c3c[nH]c4ccccc34)n2CCOC)sc2c1CCCC2,"inconclusive: 31.6 µM [activator, single point]",
Cc1ccc(C)n1-c1ccc(-c2ccnc(N)n2)cc1,,inactive: 21.3%
Cc1cccc(NS(=O)(=O)c2ccc3[nH]c(=O)cc(C(=O)OC(C)C(=O)Nc4ccc([N+](=O)[O-])cc4)c3c2)c1 (centres undefined),"inconclusive: 22.4 µM [activator, partial curve]",
CCOc1ccc(S(=O)(=O)Nc2ccc(C(=O)N/N=C(\C)c3ccc(-n4ccnc4)cc3)cc2)cc1,"inconclusive: 39.8 µM [activator, single point]",
COc1ccc(-c2cccc(NS(=O)(=O)c3ccc(NC(C)=O)cc3)c2)nn1,,inactive: 15%
COc1ccc(C)cc1NC(=O)CSc1nnc(COc2ccc(C)cc2)n1Cc1ccco1,,inactive: 13.5%
CN(C(=O)CSc1ncnc2ccccc12)C1CCCCC1,,inactive: 7.71%
O=C(CC(=O)c1cccs1)c1ccncc1,,inactive: -2.97%
O=C(NC1CCCCN(Cc2ccc(Cl)cc2)C1=O)c1ccc2ccccc2c1 (centres undefined),"inconclusive: 22.4 µM [activator, single point]",
Cc1ccc(C)c(OC2=NS(=O)(=O)c3ccccc32)c1,,inactive: -19.7%
Cc1cccc(-c2noc(CN(C(=O)c3c(-c4ccccc4Cl)noc3C)C(C)C)n2)c1,"inconclusive: 20 µM [activator, partial curve]",
N#Cc1cc2c(=O)n3ccccc3nc2n(Cc2ccco2)c1=NC(=O)c1ccco1,"inconclusive: 39.8 µM [activator, partial curve, poor fit]",
Cc1cccc(-n2ncc(C(=O)NCc3ccc4c(c3)OCO4)c2C2CCN(C(=O)OC(C)(C)C)CC2)c1,"inconclusive: 25.1 µM [activator, partial curve, poor fit]",
O=C(Cn1nnc(-c2ccccc2F)n1)Nc1ccc(F)cc1F,,inactive: -3.45%
COc1ccc2oc(C(=O)Nc3nc4ccc(S(C)(=O)=O)cc4s3)c(C)c2c1,,inactive: 3.1%
Cc1cc(N2CCCC2=O)cc(C)c1S(=O)(=O)NCCOc1ccc(C(C)(C)C)cc1,,inactive: 44.9%

SMILES,Potency,growth rescue (activation)
COc1ccc(N2CCN(C(=O)CNC(=O)c3ccc(Br)o3)CC2)cc1,"inconclusive: 3.16 µM [activator, full curve, poor fit]",
COc1ccc(C(=O)Oc2c(OC)cc(C(=S)N3CCOCC3)cc2OC)cc1OC,"inconclusive: 3.55 µM [activator, full curve, poor fit]",
O=C(COC(=O)c1cccc(Br)c1)Nc1cccc(S(=O)(=O)N2CCCCC2)c1,"inconclusive: 31.6 µM [activator, single point]",
COc1ccc(C)cc1NS(=O)(=O)c1cc(Br)cc2c1N(C(C)=O)C(C)C2 (centres undefined),,inactive: -18.2%
O=C(Cn1cc(SCc2ccc(Cl)cc2)c2ccccc21)N1CCCC1,"inconclusive: 50.1 µM [activator, single point]",
O=c1oc2ccccc2c(Nc2cc3ccccc3cc2O)c1[N+](=O)[O-],"inconclusive: 56.2 µM [activator, single point]",
COC[C@@H]1CCCN1c1ccc2c(c1)O[C@H](COCc1ccccc1)CN([C@@H](C)c1ccccc1)S2(=O)=O,"inconclusive: 12.6 µM [activator, partial curve]",
COc1ccc(C2CC(c3ccccc3)=NN2C(=O)COC(=O)c2cc(S(=O)(=O)N3CCOCC3)ccc2F)cc1 (centres undefined),"inconclusive: 8.91 µM [activator, full curve, poor fit]",
CN(CC(=O)Nc1ccccc1C(F)(F)F)C(=O)c1ccc(-c2ccc(Cl)cc2)o1,,inactive: 32.1%
CC(=O)N1c2ccccc2CC1C(=O)N1CCN(c2cc(Cl)ccc2C)CC1 (centres undefined),"inconclusive: 28.2 µM [activator, partial curve, poor fit]",
Cc1ccccc1NC(=O)c1c2c(nc3ccccc13)CCC2,"inconclusive: 3.55 µM [activator, full curve]",
Cc1cc(=O)oc2c(C)c(OC(C)C(=O)NCC3CCC(C(=O)O)CC3)ccc12 (centres undefined),,inactive: -7.93%
CCOC(=O)c1c(NC(=O)CN2C(=O)NC(C)(c3ccc(Cl)cc3)C2=O)sc(C(=O)NC)c1C (centres undefined),"inconclusive: 31.6 µM [activator, single point]",
COc1ccc(-c2nnc(SCC(=O)Nc3ccc(C)c(Cl)c3)nc2-c2ccc(OC)c(OC)c2)cc1OC,"inconclusive: 28.2 µM [activator, single point]",
CCOc1ccc(C2CC(c3cccc(OC)c3)Nc3nc(N)nn32)cc1 (centres undefined),"inconclusive: 20 µM [activator, partial curve]",
O=C(NC1CCCCC1)C(c1cccc2ccccc12)n1c(=O)c(-c2ccco2)nc2ccccc21 (centres undefined),"inconclusive: 5.62 µM [activator, partial curve, poor fit]",
Cc1ccccc1Nc1c(-c2ccc(O)cc2)nc2c(C)cccn12,,inactive: -6.75%
CC(C)(C)NC(=O)CC1C[C@H](C(=O)N2CCOCC2)[C@@]2(CCC3CCCC3)c3[nH]c4ccccc4c3CCN2C1=O (some centres undefined),"inconclusive: 17.8 µM [activator, partial curve, poor fit]",
COc1ccc(N2CCN(C(c3cccc(OC)c3OC)c3nnnn3C3CCCC3)CC2)cc1 (centres undefined),"inconclusive: 5.01 µM [activator, full curve, poor fit]",
